# Some of the results follow.
# B1: Apa (Mycobacterium tuberculosis), Rv1860 (protein)
# chain: MHQVDPNLTRRKGRLAALAIAAMASASLVTVAVPATANADPEPAPPVPTTAASPPSTAAAPPAPATPVAPPPPAAANTPNAQPGDPNAAPPPADPNAPPPPVIAPNAPQPVRIDNPVGGFSFALPAGWVESDAAHFDYGSALLSKTTGDPPFPGQPPPVANDTRIVLGRLDQKLYASAEATDSKAAARLGSDMGEFYMPYPGTRINQETVSLDANGVSGSASYYEVKFSDPSKPNGQIWTGVIGSPAANAPDAGPPQRWFVVWLGTANNPVDKGAAKALAESIRPLVAPPPAPAPAPAEPAPAPAPAGEVAPTPTTPTPQRTLPA
# How the values were obtained:
# Assay in all cases: glycan array binding signal (z-score within array); higher = stronger binding
# Settings in all cases: glycan notation: IUPAC condensed, linker removed
# [1] = target: Gal3S(b1-3)[Fuc(a1-4)]GlcNAc
# In short: (§1)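 From the Consortium for Functional Glycomics database, 3228 arrays were curated, keeping only those whose protein sequence was available. Binding is given as a within-array Z-score averaged across arrays sharing a protein sequence and across linkers. Negative Z-scores can be read as non-binding.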
# Gal3S(b1-4)Glc = target: Gal3S(b1-4)Glc
# In short: as §1
# Gal3S(b1-4)Glc6S = target: Gal3S(b1-4)Glc6S
# In short: as §1
# Gal3S(b1-4)GlcNAc = target: Gal3S(b1-4)GlcNAc
# In short: as §1
# [2] = target: Gal3S(b1-4)[Fuc(a1-3)]Glc6S
# In short: as §1
# [3] = target: Gal3S(b1-4)[Fuc(a1-3)]GlcNAc
# In short: as §1
# [4] = target: Gal3S(b1-4)[Fuc(a1-3)]GlcNAc6S
# In short: as §1
# Gal3S4S(b1-4)GlcNAc = target: Gal3S4S(b1-4)GlcNAc
# In short: as §1
# Gal3S6S(b1-4)GlcNAc = target: Gal3S6S(b1-4)GlcNAc
# In short: as §1
# Gal3S6S(b1-4)GlcNAc6S = target: Gal3S6S(b1-4)GlcNAc6S
# In short: as §1
# Gal4S(b1-4)GlcNAc = target: Gal4S(b1-4)GlcNAc
# In short: as §1
# Gal4S6S(b1-4)GlcNAc = target: Gal4S6S(b1-4)GlcNAc
# In short: as §1
# Gal6P(b1-4)GlcNAc = target: Gal6P(b1-4)GlcNAc
# In short: as §1
# Gal6S(b1-3)GlcNAc = target: Gal6S(b1-3)GlcNAc
# In short: as §1
# Gal6S(b1-3)GlcNAc6S = target: Gal6S(b1-3)GlcNAc6S
# In short: as §1
# Gal6S(b1-4)Glc = target: Gal6S(b1-4)Glc
# In short: as §1
# Gal6S(b1-4)Glc6S = target: Gal6S(b1-4)Glc6S
# In short: as §1
# Gal6S(b1-4)GlcNAc = target: Gal6S(b1-4)GlcNAc
# In short: as §1
# Gal6S(b1-4)GlcNAc6S = target: Gal6S(b1-4)GlcNAc6S
# In short: as §1
# GalNAc(a1-3)Gal = target: GalNAc(a1-3)Gal
# In short: as §1
# GalNAc(a1-3)GalNAc = target: GalNAc(a1-3)GalNAc
# In short: as §1
# [5] = target: GalNAc(a1-3)GalNAc(b1-3)Gal(a1-4)Gal(b1-4)Glc
# In short: as §1
# [6] = target: GalNAc(a1-3)GalNAc(b1-3)Gal(a1-4)Gal(b1-4)GlcNAc
# In short: as §1
# GalNAc(b1-3)Gal = target: GalNAc(b1-3)Gal
# In short: as §1
# [7] = target: GalNAc(b1-3)Gal(a1-4)Gal(b1-4)GlcNAc
# In short: as §1
# [8] = target: GalNAc(b1-3)Gal(a1-4)Gal(b1-4)GlcNAc(b1-3)Gal(b1-4)Glc
# In short: as §1
# [9] = target: GalNAc(b1-3)Gal(a1-6)Gal(b1-4)Glc
# In short: as §1
# GalNAc(b1-3)GalNAc = target: GalNAc(b1-3)GalNAc
# In short: as §1
# GalNAc(b1-3)GlcNAc = target: GalNAc(b1-3)GlcNAc
# In short: as §1
# GalNAc(b1-4)Gal(b1-4)Glc = target: GalNAc(b1-4)Gal(b1-4)Glc
# In short: as §1
# GalNAc(b1-4)GlcNAc = target: GalNAc(b1-4)GlcNAc
# In short: as §1
# [10] = target: GalNAc(b1-4)GlcNAc(b1-2)Man
# In short: as §1
# [11] = target: GalNAc(b1-4)GlcNAc(b1-2)Man(a1-3)[GalNAc(b1-4)GlcNAc(b1-2)Man(a1-6)]Man(b1-4)GlcNAc(b1-4)GlcNAc
# In short: as §1
# [12] = target: GalNAc(b1-4)GlcNAc(b1-3)GalNAc(b1-4)GlcNAc
# In short: as §1
# GalNAc(b1-4)GlcNAc6S = target: GalNAc(b1-4)GlcNAc6S
# In short: as §1
# GalNAc(b1-6)GalNAc = target: GalNAc(b1-6)GalNAc
# In short: as §1
# GalNAc3S(b1-4)GlcNAc = target: GalNAc3S(b1-4)GlcNAc
# In short: as §1
# GalNAc3S(b1-4)GlcNAc3S = target: GalNAc3S(b1-4)GlcNAc3S
# In short: as §1
# [13] = target: GalNAc3S(b1-4)[Fuc(a1-3)]GlcNAc
# In short: as §1
# GalNAc4S6S(b1-4)GlcNAc = target: GalNAc4S6S(b1-4)GlcNAc
# In short: as §1
# GalNAc6S(b1-4)GlcNAc = target: GalNAc6S(b1-4)GlcNAc
# In short: as §1
# Glc(a1-4)Glc = target: Glc(a1-4)Glc
# In short: as §1
# [14] = target: Glc(a1-4)Glc(a1-4)Glc(a1-4)Glc
# In short: as §1
# Glc(a1-6)Glc(a1-6)Glc = target: Glc(a1-6)Glc(a1-6)Glc
# In short: as §1
# [15] = target: Glc(a1-6)Glc(a1-6)Glc(a1-6)Glc
# In short: as §1
binder,measurement,setting,value
B1,glycan array binding signal (z-score),[1],-0.012
same,glycan array binding signal (z-score),Gal3S(b1-4)Glc,-0.068
same,glycan array binding signal (z-score),Gal3S(b1-4)Glc6S,0.25
same,glycan array binding signal (z-score),Gal3S(b1-4)GlcNAc,-0.061
same,glycan array binding signal (z-score),[2],0.519
same,glycan array binding signal (z-score),[3],-0.205
same,glycan array binding signal (z-score),[4],0.275
same,glycan array binding signal (z-score),Gal3S4S(b1-4)GlcNAc,0.179
same,glycan array binding signal (z-score),Gal3S6S(b1-4)GlcNAc,0.641
same,glycan array binding signal (z-score),Gal3S6S(b1-4)GlcNAc6S,0.639
same,glycan array binding signal (z-score),Gal4S(b1-4)GlcNAc,-0.369
same,glycan array binding signal (z-score),Gal4S6S(b1-4)GlcNAc,-0.135
same,glycan array binding signal (z-score),Gal6P(b1-4)GlcNAc,-0.315
same,glycan array binding signal (z-score),Gal6S(b1-3)GlcNAc,-0.335
same,glycan array binding signal (z-score),Gal6S(b1-3)GlcNAc6S,0.42
same,glycan array binding signal (z-score),Gal6S(b1-4)Glc,0.412
same,glycan array binding signal (z-score),Gal6S(b1-4)Glc6S,1.02
same,glycan array binding signal (z-score),Gal6S(b1-4)GlcNAc,-0.201
same,glycan array binding signal (z-score),Gal6S(b1-4)GlcNAc6S,-0.101
same,glycan array binding signal (z-score),GalNAc(a1-3)Gal,-0.135
same,glycan array binding signal (z-score),GalNAc(a1-3)GalNAc,-0.407
same,glycan array binding signal (z-score),[5],-0.489
same,glycan array binding signal (z-score),[6],0.718
same,glycan array binding signal (z-score),GalNAc(b1-3)Gal,0.01
same,glycan array binding signal (z-score),[7],1.77
same,glycan array binding signal (z-score),[8],-0.373
same,glycan array binding signal (z-score),[9],0.317
same,glycan array binding signal (z-score),GalNAc(b1-3)GalNAc,-0.334
same,glycan array binding signal (z-score),GalNAc(b1-3)GlcNAc,0.316
same,glycan array binding signal (z-score),GalNAc(b1-4)Gal(b1-4)Glc,0.95
same,glycan array binding signal (z-score),GalNAc(b1-4)GlcNAc,-0.065
same,glycan array binding signal (z-score),[10],-0.412
same,glycan array binding signal (z-score),[11],0.045
same,glycan array binding signal (z-score),[12],-0.527
same,glycan array binding signal (z-score),GalNAc(b1-4)GlcNAc6S,-0.421
same,glycan array binding signal (z-score),GalNAc(b1-6)GalNAc,0.188
same,glycan array binding signal (z-score),GalNAc3S(b1-4)GlcNAc,0.579
same,glycan array binding signal (z-score),GalNAc3S(b1-4)GlcNAc3S,-0.538
same,glycan array binding signal (z-score),[13],-0.391
same,glycan array binding signal (z-score),GalNAc4S6S(b1-4)GlcNAc,-0.233
same,glycan array binding signal (z-score),GalNAc6S(b1-4)GlcNAc,2.78
same,glycan array binding signal (z-score),Glc(a1-4)Glc,-0.058
same,glycan array binding signal (z-score),[14],-0.291
same,glycan array binding signal (z-score),Glc(a1-6)Glc(a1-6)Glc,-0.058
same,glycan array binding signal (z-score),[15],0.236

# Source: the supplement of paper PMC8728848
